The other results are listed elsewhere or left out. Antibody binding of pooled human sera (four to six donors per pool; dilution not stated) to peptides of the Trypanosoma cruzi antigen TSSA on microarrays. Quantile-normalised fluorescence in arbitrary units, mean of duplicate arrays; higher = more binding. No active / inactive call. The uninfected pools are read here as the healthy donors of the same country. The strongest signals lie near the top of the scale (about 60,000).

The test system of one test is pooled sera of uninfected people, Argentina. Description: antibody binding signal (normalised fluorescence) (arbitrary fluorescence units); higher = stronger serum antibody binding to peptide. Here is the method: (§1)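 Microarray of 15-residue peptides over residues 30-55 of Trypanosoma cruzi TSSAII, each with 1 to 10 substitutions at naturally variable positions, probed with one serum pool per country.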
Consider SGTDKKPATGETPSQ, for which the antibody binding signal stood at 245.

Turning to SGKEKKTATGGAPSQ, the antibody binding signal was 248.

As for TDNKTAAGGTPSPPG, the antibody binding signal turned out to be 203.

Consider KKPATGGAPSPPGAS, for which the antibody binding signal came out at 422.

On to KDKKPATGEAPSPSG, for which the antibody binding signal was 730.

KDNKAATGGTPSQPG had an antibody binding signal of 467.

Turning to SSTPPSGKENKPAAG, the antibody binding signal was found to be 3670.

Sequence SGTENKTAAGETPSP had an antibody binding signal of 353.

Sequence GTENKAATGETPSQS displayed an antibody binding signal of 159.

STPPSGTENKTAAGG came in with an antibody binding signal of 2730.

The sequence TENKTATGGAPSPSG displayed an antibody binding signal of 314.

PSGTDNKPAAGGTPS came in with an antibody binding signal of 273.

Take GTENKAATGGTPSPP: the antibody binding signal turned out to be 196.

Turning to GKEKKAATGETPSQP, the antibody binding signal was found to be 238.

TEKKAAAGGAPSPSG registered an antibody binding signal of 246.

In the case of PPSGKDNKAATGEAP, the antibody binding signal stood at 385.

DKKPAAGEAPSPSGA gave an antibody binding signal of 130.

Take GTDKKPAAGEAPSQS: the antibody binding signal came to 94.4.

Take DNKPAAGGAPSPSGA: the antibody binding signal is 331.

On to TEKKAAAGGAPSPPG, for which the antibody binding signal stood at 223.

Sequence PPSGKDKKPAAGEAP showed an antibody binding signal of 386.

Sequence PPSGTEKKAATGEAP displayed an antibody binding signal of 1020.

On to NKAAAGETPSPSGAS, for which the antibody binding signal came to 438.

TISTPPSGKDKKAAA displayed an antibody binding signal of 302.

As to KTATGETPSQSGASS, the antibody binding signal worked out at 261.

The sequence GKDKKAAAGEAPSQP registered an antibody binding signal of 121.

In the case of GKEKKPAAGGAPSQP, the antibody binding signal came to 114.

Turning to PSGTDNKAATGGAPS, the antibody binding signal is 476.

As to TPPSGKEKKPAAGGA, the antibody binding signal worked out at 577.

In turn, TEKKTATGEAPSQSG came in with an antibody binding signal of 277.

For the sequence TDNKAAAGGTPSQPG, the antibody binding signal came to 358.

As to ENKAATGEAPSPSGA, the antibody binding signal was 200.

KKTATGEAPSQSGAS showed an antibody binding signal of 357.

In turn, GKDKKPATGEAPSPS displayed an antibody binding signal of 762.

KENKAAAGGTPSPSG came in with an antibody binding signal of 121.

For the sequence TDKKPATGETPSQSG, the antibody binding signal is 224.

The sequence DKKAATGETPSPSGA came in with an antibody binding signal of 712.

For the sequence STPPSGKDKKAAAGE, the antibody binding signal was 423.

Regarding TISTPPSGKDNKTAA, the antibody binding signal was 1400.

Sequence TPPSGTDNKAATGEA came in with an antibody binding signal of 572.

Another test has as its system pooled sera of uninfected people, Bolivia. Described as above. Here is the method: as §1
For the sequence SGTDKKPATGETPSQ, the antibody binding signal is 418.

For the sequence SGKEKKTATGGAPSQ, the antibody binding signal is 153.

TDNKTAAGGTPSPPG showed an antibody binding signal of 347.

For the sequence KKPATGGAPSPPGAS, the antibody binding signal was 600.

Sequence KDKKPATGEAPSPSG registered an antibody binding signal of 212.

KDNKAATGGTPSQPG displayed an antibody binding signal of 1100.

For SSTPPSGKENKPAAG, the antibody binding signal worked out at 2000.

As to SGTENKTAAGETPSP, the antibody binding signal came to 400.

GTENKAATGETPSQS gave an antibody binding signal of 433.

STPPSGTENKTAAGG returned an antibody binding signal of 663.

On to TENKTATGGAPSPSG, for which the antibody binding signal was found to be 204.

In the case of PSGTDNKPAAGGTPS, the antibody binding signal was 841.

For the sequence GTENKAATGGTPSPP, the antibody binding signal was found to be 355.

GKEKKAATGETPSQP returned an antibody binding signal of 106.

TEKKAAAGGAPSPSG had an antibody binding signal of 393.

PPSGKDNKAATGEAP had an antibody binding signal of 501.

DKKPAAGEAPSPSGA returned an antibody binding signal of 151.

Consider GTDKKPAAGEAPSQS, for which the antibody binding signal turned out to be 253.

For the sequence DNKPAAGGAPSPSGA, the antibody binding signal was 365.

Consider TEKKAAAGGAPSPPG, for which the antibody binding signal amounted to 163.

Sequence PPSGKDKKPAAGEAP displayed an antibody binding signal of 570.

PPSGTEKKAATGEAP: the antibody binding signal is 349.

Turning to NKAAAGETPSPSGAS, the antibody binding signal was found to be 824.

Sequence TISTPPSGKDKKAAA came in with an antibody binding signal of 270.

The sequence KTATGETPSQSGASS had an antibody binding signal of 300.

Turning to GKDKKAAAGEAPSQP, the antibody binding signal was 88.2.

As for GKEKKPAAGGAPSQP, the antibody binding signal was 96.1.

For the sequence PSGTDNKAATGGAPS, the antibody binding signal was found to be 735.

Sequence TPPSGKEKKPAAGGA returned an antibody binding signal of 334.

The sequence TEKKTATGEAPSQSG showed an antibody binding signal of 195.

Consider TDNKAAAGGTPSQPG, for which the antibody binding signal worked out at 286.

The sequence ENKAATGEAPSPSGA displayed an antibody binding signal of 157.

KKTATGEAPSQSGAS returned an antibody binding signal of 193.

For GKDKKPATGEAPSPS, the antibody binding signal came to 227.

The sequence KENKAAAGGTPSPSG registered an antibody binding signal of 94.8.

In turn, TDKKPATGETPSQSG showed an antibody binding signal of 407.

As to DKKAATGETPSPSGA, the antibody binding signal came to 166.

As to STPPSGKDKKAAAGE, the antibody binding signal is 353.

For the sequence TISTPPSGKDNKTAA, the antibody binding signal stood at 556.

On to TPPSGTDNKAATGEA, for which the antibody binding signal is 461.

A further test concerns pooled sera of uninfected people, Brazil. The description is as above. Here is the method: as §1
Consider SGTDKKPATGETPSQ, for which the antibody binding signal is 195.

In turn, SGKEKKTATGGAPSQ showed an antibody binding signal of 89.9.

TDNKTAAGGTPSPPG: the antibody binding signal is 933.

In turn, KKPATGGAPSPPGAS registered an antibody binding signal of 108.

Consider KDKKPATGEAPSPSG, for which the antibody binding signal worked out at 140.

KDNKAATGGTPSQPG yielded an antibody binding signal of 224.

SSTPPSGKENKPAAG yielded an antibody binding signal of 214.

SGTENKTAAGETPSP yielded an antibody binding signal of 174.

As to GTENKAATGETPSQS, the antibody binding signal is 179.

Consider STPPSGTENKTAAGG, for which the antibody binding signal came out at 622.

As for TENKTATGGAPSPSG, the antibody binding signal turned out to be 456.

For PSGTDNKPAAGGTPS, the antibody binding signal was determined as 1840.

Consider GTENKAATGGTPSPP, for which the antibody binding signal is 284.

GKEKKAATGETPSQP returned an antibody binding signal of 289.

The sequence TEKKAAAGGAPSPSG returned an antibody binding signal of 351.

PPSGKDNKAATGEAP showed an antibody binding signal of 217.

The sequence DKKPAAGEAPSPSGA showed an antibody binding signal of 173.

GTDKKPAAGEAPSQS had an antibody binding signal of 164.

For the sequence DNKPAAGGAPSPSGA, the antibody binding signal was found to be 558.

As to TEKKAAAGGAPSPPG, the antibody binding signal was 607.

Sequence PPSGKDKKPAAGEAP gave an antibody binding signal of 133.

Consider PPSGTEKKAATGEAP, for which the antibody binding signal is 290.

On to NKAAAGETPSPSGAS, for which the antibody binding signal was found to be 539.

In turn, TISTPPSGKDKKAAA yielded an antibody binding signal of 124.

KTATGETPSQSGASS gave an antibody binding signal of 243.

Sequence GKDKKAAAGEAPSQP registered an antibody binding signal of 82.8.

Sequence GKEKKPAAGGAPSQP displayed an antibody binding signal of 121.

PSGTDNKAATGGAPS gave an antibody binding signal of 2070.

In the case of TPPSGKEKKPAAGGA, the antibody binding signal was 205.

As to TEKKTATGEAPSQSG, the antibody binding signal is 272.

The sequence TDNKAAAGGTPSQPG yielded an antibody binding signal of 1480.

In turn, ENKAATGEAPSPSGA gave an antibody binding signal of 155.

Consider KKTATGEAPSQSGAS, for which the antibody binding signal came out at 113.

In turn, GKDKKPATGEAPSPS showed an antibody binding signal of 113.

On to KENKAAAGGTPSPSG, for which the antibody binding signal was 339.

With TDKKPATGETPSQSG, the antibody binding signal is 256.

DKKAATGETPSPSGA yielded an antibody binding signal of 450.

Take STPPSGKDKKAAAGE: the antibody binding signal was found to be 99.1.

Take TISTPPSGKDNKTAA: the antibody binding signal was 268.

The sequence TPPSGTDNKAATGEA gave an antibody binding signal of 450.

(Values after the supplement of paper PMC10441789.)
